According to PubChem BioAssay AID1240 (Sanford-Burnham Center for Chemical Genomics, 2008):
Screen size: about 50,000 compounds; about 800 (1.6%) showed an effect of 50% or more. This is one part of the list.

Biological target: Bcl-2-like protein 10 (Homo sapiens) (UniProt Q9HD36)
Assay: TR3 peptide-Bcl-B binding displacers, biochemical primary FP assay, phenotype converters (AID 1240);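 also: 0% = Bcl-B with tracer peptide and DMSO and 100% = tracer peptide lacking Bcl-B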
Details: GST-Bcl-B / FITC-TR3 peptide fluorescence polarization; stronger effect = higher value; compound at 3.75 mg/L

Sequence of UniProt Q9HD36 (Q9HD36 whole entry, looked up): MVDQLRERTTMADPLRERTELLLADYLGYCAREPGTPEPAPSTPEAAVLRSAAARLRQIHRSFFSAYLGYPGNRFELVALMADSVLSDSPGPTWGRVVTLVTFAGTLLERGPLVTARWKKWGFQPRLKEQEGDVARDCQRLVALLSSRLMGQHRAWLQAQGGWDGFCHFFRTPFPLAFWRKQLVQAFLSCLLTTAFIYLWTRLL

First: O=C(NCc1ccccc1)/C(=C\c1ccc(-c2ccccc2)o1)NC(=O)c1ccccc1
Second: O=C(NCCO)/C(=C\c1ccc(Br)cc1)NC(=O)c1ccccc1
The displacement of the first is lower: -11.9% for the first, -0.9% for the second.

First: CCCCNCCCOc1ccc(Cl)cc1
Second: CCCOc1ccc(C(=S)N2CCN(c3cccc(Cl)c3)CC2)cc1
The displacement of the first is lower: 2.8% for the first, 17.9% for the second.

Compared with `COc1ccc(C(=O)N/C(=C\c2cccc3ccccc23)C(=O)N2CCN(C)CC2)cc1OC`, `COc1ccc(CN2CCN(C(=O)c3cccc(Cl)c3)CC2)cc1OC` is lower in displacement: 1.8% for the first, -0.4% for the second.

Compared with `CSc1ccc(Cl)c(C(=O)NCC(C)c2ccccc2)c1` (stereo not given), `CCC(C(=O)Nc1ccc(OC)cc1OC)c1ccccc1` (stereo not given) is higher in displacement: 0.9% for the first, 1.7% for the second.

Compared with `COc1cc(/C=C2/SC(=S)N(c3ccccc3)C2=O)ccc1OC(=O)c1cccs1`, `COc1cc(/C=C2/SC(=S)NC2=O)ccc1OC(=O)c1ccccc1Br` is lower in displacement: 17.1% for the first, 3.3% for the second.

First: Cc1ccc(-c2noc(CCc3ccccc3)n2)cc1
Second: Cc1ccc(-n2c(C)nc(N)c2C(=O)c2ccccc2)cc1
The displacement of the first is higher: 13.4% for the first, -0.4% for the second.

Compared with `CN1C(=O)/C(=C\c2cc(Cl)ccc2OCc2ccccc2Cl)SC1=S`, `CN1C(=O)/C(=C/c2cccn2-c2cccc([N+](=O)[O-])c2)SC1=S` is higher in displacement: 10.8% for the first, 27.1% for the second.

First: Oc1ccccc1/C=N/Nc1cc(N2CCCC2)nc(N2CCCC2)n1
Second: O=C(c1ccc(Cl)cc1Cl)N1CCN(c2cc(N3CCCCC3)c(F)cc2[N+](=O)[O-])CC1
The displacement of the first is higher: 29.3% for the first, -4.2% for the second.

Going from `CCN(CC)C(=S)NC(=O)/C=C/c1ccc(OC)c(OC)c1` to `COc1ccc(NC(=O)COc2ccc(C)cc2C)cc1OC`, the displacement rises from 1.1% to 2.4%.

Compared with `COc1ccc(C(NC(=O)c2ccccc2)c2c(O)ccc3ccccc23)cc1OC` (stereo not given), `COc1ccc(C(NC(=O)Cc2ccccc2)c2ccc(OC)cc2)cc1` is lower in displacement: 0.8% for the first, -3% for the second.

First: COC(=O)c1c(NC(=O)c2ccc(OCC(C)C)cc2)sc2c1CCC2
Second: COC(=O)c1c(NC(=O)C2CC2)sc2c1CCCCCC2
The displacement of the first is higher: 1.7% for the first, -13.5% for the second.

`CCOc1ccccc1CN(CCc1ccc2c(c1)OCO2)Cc1ccncc1` and `COc1ccccc1CNC(=O)Cc1ccc(Cl)cc1` are the same in displacement: 0.4% for the first, 0.4% for the second.

First: Cc1c(Cl)cccc1-c1ccc(C(=O)Nc2ccc3c4c(cccc24)CC3)o1
Second: O=C(Nc1cccc2c1C(=O)c1ccccc1C2=O)c1ccc(Br)cc1
The displacement of the first is higher: 14.7% for the first, 1% for the second.

Going from `COc1ccc(C(=O)Nc2ccc(O)c(-c3nc4cc(C)c(C)cc4o3)c2)cc1[N+](=O)[O-]` to `COc1ccc(C(=O)Nc2ccc(S(=O)(=O)Nc3nccnc3OC)cc2)cc1OC`, the displacement rises from -2.9% to 6.3%.

First: CC(C)(C)OC(=O)NC(Cc1ccccc1)C(=O)O (stereo not given)
Second: O=C(NCc1ccccc1)C(=O)NCc1ccncc1
The displacement of the first is higher: 3.4% for the first, -6% for the second.

Compared with `COc1ccc(NC(=O)N2CCN(c3ccccn3)CC2)cc1`, `O=C(c1cccs1)N1CCN(c2cccc(Cl)c2)CC1` is lower in displacement: -5.1% for the first, -12% for the second.

First: O=C1Oc2ccccc2N/C1=C/c1ccccc1
Second: O=C1N/C(=C/c2ccc(Br)cc2)C(O)=C1C=NCc1ccccc1
The displacement of the first is higher: 0.6% for the first, -4.1% for the second.

Going from `O=c1oc(-c2sc3ccccc3c2Cl)nc2ccccc12` to `CCc1cc(C(=O)N=Nc2c(O)[nH]c3ccccc23)c2ccccc2n1`, the displacement rises from -40.6% to -1.7%.

Compared with `COc1ccc(N2C(=O)NC(=O)/C(=C/c3ccc(-c4ccc([N+](=O)[O-])cc4)o3)C2=O)cc1`, `O=C1NC(=O)N(c2ccccc2)C(=O)/C1=C\c1ccc(-c2cccc([N+](=O)[O-])c2)o1` is lower in displacement: 46.2% for the first, 39.3% for the second.

Compared with `O=C1CSC(=S)N1c1ccc(Cl)cc1`, `Cc1ccsc1/C=C1\C(=O)NC(=O)N(c2ccc(Cl)cc2)C1=O` is higher in displacement: 18.2% for the first, 18.5% for the second.

Going from `CCOC(=O)COc1c(Br)cc(/C=N/NC(=O)Nc2ccccc2)cc1OC` to `COc1cc(/C=N\NC(=O)c2c(C)nc3sccn23)ccc1O`, the displacement falls from 4.6% to 3.3%.

Going from `COc1cc2c(cc1OC)C(C)=NC(C)(C)C2` to `COc1cc(/C=C2\SC(N3CCCCCC3)=NC2=O)cc(OC)c1OC`, the displacement falls from 8.4% to -18.7%.

Compared with `CCC(=O)Nc1c(C)ccc2nsnc12`, `CCC(=O)Nc1ccc2oc(-c3cccnc3)nc2c1` is higher in displacement: -7% for the first, 13.8% for the second.

Going from `COc1ccc(CCN(C(C)=O)C2CC(=O)N(c3ccc(Cl)cc3)C2=O)cc1` (stereo not given) to `COc1ccc(/C=C2\C(=O)NC(=O)N(c3ccc(Br)c(C)c3)C2=O)cc1`, the displacement falls from -1.9% to -3%.

Going from `NC(=O)c1ccccc1NC(=O)Cc1ccc([N+](=O)[O-])cc1` to `O=C(CCC1C(=O)OCN1C(=O)OCc1ccccc1)ONc1ccc([N+](=O)[O-])cc1` (stereo not given), the displacement falls from 21.3% to 3.6%.

Going from `O=C(CN(Cc1ccccc1)S(=O)(=O)c1ccccc1)N/N=C/c1ccccc1F` to `O=C(Nc1ccccc1C(=O)NCCc1ccccc1)c1ccncc1`, the displacement rises from 2.4% to 3.4%.

Going from `CCOC(=O)c1sc(C)c(C#N)c1N` to `CCOC(=O)C1=C(C)N=c2s/c(=C\c3cccc(OC)c3)c(=O)n2C1c1ccc(C)cc1` (stereo not given), the displacement falls from 6.5% to 2.3%.

Going from `CCN1C(=O)/C(=C/c2nc3ccccc3c(=O)n2-c2cccc(OC)c2)c2ccccc21` to `O=C1c2ccccc2C(=O)N1CCCc1nc2ccccc2c(=O)n1Cc1ccccc1`, the displacement falls from -5.7% to -10%.

Compared with `COc1ccc(/C=N/c2ncn[nH]2)cc1`, `COC(=O)c1ccc(/C=N/NC(=O)CCC2C(=O)NN=C2C)cc1` (stereo not given) is lower in displacement: 2.1% for the first, -9.5% for the second.

Compared with `CCC(=O)NC(Nc1cc(C)ccn1)(C(F)(F)F)C(F)(F)F`, `O=C(c1cnn2c1NC(c1cccs1)CC2C(F)(F)F)N1CCOCC1` (stereo not given) is lower in displacement: 10.6% for the first, -1.3% for the second.

First: NNC(=O)COc1ccccc1-c1ccccc1
Second: CCOC(=O)C1(C)C=C(Nc2ccccc2)C(=O)N1c1ccccc1 (stereo not given)
The displacement of the first is higher: -2.3% for the first, -6% for the second.

Going from `Cc1ccc(-n2[nH]c(C)c(C3SCc4cc(C)c(C)cc4CS3)c2=O)cc1` to `Cc1ccc(N2CC(C(=O)NCC3CCCO3)CC2=O)cc1` (stereo not given), the displacement rises from -5.3% to 5.2%.

Compared with `O=C(NN1C(=O)c2ccccc2C1=O)c1ccc(Cl)c(Cl)c1`, `O=C1C(Cl)=C(Nc2ccc(F)cc2)C(=O)N1c1cccc(Cl)c1` is higher in displacement: -7.2% for the first, 8.9% for the second.

Going from `Cc1ccc(C)c(OCc2nnc(NC(=O)c3cccs3)s2)c1` to `CCOc1cccc(C(=O)Nc2nnc(-c3ccccc3C)s2)c1`, the displacement rises from 21.2% to 46.9%.

First: O=C(NCc1ccco1)N1CCOCC1
Second: O=C(Nc1ccc(N2CCOCC2)c(Cl)c1)c1ccc(Cl)cc1[N+](=O)[O-]
The displacement of the first is higher: -4% for the first, -7.2% for the second.

Going from `COc1ccc(-c2c(C#N)c(N)nc3c2CC(C)CC3)cc1` (stereo not given) to `COC(=O)c1c(C)oc2cc(Br)c(OCC(=O)c3ccc(OC)cc3)cc12`, the displacement rises from -2.4% to 14%.

First: CC(=O)NC1=NN(C(C)=O)C(c2cccc(Cl)c2)S1 (stereo not given)
Second: COc1c(Cl)cc(-c2nc3cc(NC(=O)C(C)C)ccc3o2)cc1Cl
The displacement of the first is higher: -4% for the first, -12.7% for the second.

Compared with `CC(=O)C1C(=O)CC(C)(O)C(C(C)=O)C1c1ccc(N(C)C)cc1` (stereo not given), `CC1(C)NC(=O)N(CC(O)CN(c2ccccc2)c2ccccc2)C1=O` (stereo not given) is lower in displacement: 3% for the first, -10.5% for the second.

First: CC1CCc2c(sc(NC(=O)CC(c3ccccc3)c3ccccc3)c2C(N)=O)C1 (stereo not given)
Second: CCOC(=O)C(=O)N1c2ccccc2CCc2ccccc21
The displacement of the first is higher: 10.8% for the first, 0.6% for the second.

Compared with `C=CCNC1=C(Cl)C(=O)N(c2cccc(Cl)c2Cl)C1=O`, `O=C1NC(=O)C(=Cc2cc(Cl)c(OCc3cccc(F)c3)c(Cl)c2)C(=O)N1` is lower in displacement: 13.2% for the first, -6.4% for the second.

Compared with `CCOc1ccc(C(=O)Nc2cc(=O)n(C)c(=O)n2C)cc1`, `CCOC(=O)C(CC)Oc1ccc2ccc(=O)oc2c1` (stereo not given) is lower in displacement: 12.2% for the first, -0.6% for the second.

Going from `CC(=O)CCc1oc2c(Br)cc(Br)cc2c1-c1ccc(C)o1` to `O=C(c1ccc(Br)cc1)c1ccc2c(c1)OCCO2`, the displacement rises from -6.5% to 4.8%.

Compared with `C=CCNC(=O)c1ccc(-c2ccc([N+](=O)[O-])cc2)o1`, `CC[n+]1c(/C=C/c2ccc(-c3ccc([N+](=O)[O-])cc3)o2)ccc2ccccc21` is lower in displacement: 16.8% for the first, -127% for the second.

Going from `COc1ccc(OC(C)C(=O)Nc2cccc(OC)c2)cc1` (stereo not given) to `COc1ccc(OCC(=O)NNC(=O)c2ccccc2C)cc1`, the displacement falls from 7.7% to 2.6%.

Going from `CCc1nn2c(N)c(/C=C3/C=Nc4ccccc43)c(=O)nc2s1` to `NC1=C(Nc2cccc3ccccc23)C(=O)c2ccccc2C1=O`, the displacement falls from 16.4% to 6.7%.

First: COc1ccc(/C=C2/SC(=O)NC2=O)c2ccccc12
Second: COc1ccccc1N1C(=O)/C(=C/C(C)=C/c2ccccc2)SC1=S
The displacement of the first is higher: -0.8% for the first, -1.1% for the second.

Going from `COc1ccc(-c2cc(C(F)(F)F)n3nc(C(=O)NCCCn4ccnc4)c(Cl)c3n2)cc1` to `O=S(=O)(N/N=C/c1ccccc1C(F)(F)F)c1ccc(Cl)cc1`, the displacement falls from 105% to 10.6%.

First: CC(C)(C)c1cc(C(=O)N/N=C/c2ccccc2Cl)n[nH]1
Second: CC/C(=C\C(=O)c1ccccc1)Nc1ccc(Br)cc1
The displacement of the first is higher: 15.8% for the first, 0.3% for the second.

First: CCc1ccc(-c2csc(NC(=O)C3C4CCC(C4)C3C(=O)O)n2)cc1 (stereo not given)
Second: COc1ccc(C(=O)N2CCN(C3C4CC5CC(C4)CC3C5)CC2)cc1 (stereo not given)
The displacement of the first is lower: -7.2% for the first, 11.6% for the second.

Compared with `O=C(CCCN1C(=O)c2ccccc2C1=O)Nc1ccccc1C(=O)N1CCCCC1`, `COc1ccccc1C(=O)N=Nc1c(O)n(C)c2ccccc12` is higher in displacement: -2.2% for the first, 7.1% for the second.

First: Cc1cc(C)c2nc3s/c(=C\c4cc5c(cc4Br)OCO5)c(=O)n3c2c1
Second: Cc1ccc(C2=C/C(=C/c3cc4c(cc3[N+](=O)[O-])OCO4)C(=O)O2)cc1
The displacement of the first is lower: -8.5% for the first, -7.1% for the second.

Going from `O=C(Nc1ccccc1)Nc1ccc(NC(=O)Nc2ccccc2)cc1` to `Cc1ccc(C2(c3ccc(C)cc3)CC2C(=O)Nc2ccc([N+](=O)[O-])cc2O)cc1` (stereo not given), the displacement rises from 5.1% to 5.8%.

Going from `O=C(/C=C\Nc1ccc2c(c1)OCO2)c1cccs1` to `Cc1ccc(S(=O)(=O)NCCNc2ccc(Cl)cc2[N+](=O)[O-])cc1`, the displacement falls from 5.1% to 0.1%.

Going from `N#CCCS(=O)(=O)c1cc(Cl)ccc1Cl` to `Cc1ccc(S(=O)(=O)n2cnc(C)c2)cc1`, the displacement rises from -0.6% to 11.4%.

First: C=C(C)Cn1c(=S)[nH]c2sc3c(c2c1=O)CC(C)(CC)OC3 (stereo not given)
Second: CC(NS(=O)(=O)c1cccc([N+](=O)[O-])c1)C1C2CC3CC(C2)CC1C3 (stereo not given)
The displacement of the first is lower: -11.5% for the first, 6.9% for the second.
